Experimental data: US20240309116A1 (ZHEJIANG SHIMAI PHARMACEUTICAL, published 2024)

How the values were obtained:
[1] = target: T1, cell surface-associated ROR1 on human cancer cell lines (human, UniProt Q01973 30-937); test: flow cytometry on JEKO-1 cells
T1 construct: whole, on cells; Endogenous ROR1 of human cell lines

[2] = target: T1, cell surface-associated ROR1 on human …; test: cell-based or functional assay
[3] = target: T2, CD3 on Jurkat cells (human, UniProt P07766; P04234; P09693; P20963); test: flow cytometry on Jurkat cells
T2 construct: also called CD3 positive cell line Jurkat; CD3 expressing Jurkat cell line
T2 sequence (P07766 23-207 limits assumed, chain 1 of 4): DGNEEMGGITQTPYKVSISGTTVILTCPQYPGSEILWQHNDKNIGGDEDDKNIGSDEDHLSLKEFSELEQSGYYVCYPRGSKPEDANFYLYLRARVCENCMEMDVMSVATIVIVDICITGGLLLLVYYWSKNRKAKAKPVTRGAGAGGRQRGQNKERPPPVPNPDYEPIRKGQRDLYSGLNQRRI
T2 sequence (P04234 22-171 limits assumed, chain 2 of 4, further chain): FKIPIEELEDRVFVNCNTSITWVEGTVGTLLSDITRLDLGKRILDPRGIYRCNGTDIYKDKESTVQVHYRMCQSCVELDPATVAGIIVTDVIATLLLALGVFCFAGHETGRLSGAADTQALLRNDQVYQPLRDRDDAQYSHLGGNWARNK
T2 sequence (P09693 23-182 limits assumed, chain 3 of 4, further chain): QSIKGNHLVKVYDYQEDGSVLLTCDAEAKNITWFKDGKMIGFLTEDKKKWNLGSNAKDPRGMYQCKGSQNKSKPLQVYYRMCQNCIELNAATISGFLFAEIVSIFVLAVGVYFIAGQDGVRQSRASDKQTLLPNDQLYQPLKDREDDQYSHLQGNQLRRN
T2 sequence (P20963 22-164 limits assumed, chain 4 of 4, further chain): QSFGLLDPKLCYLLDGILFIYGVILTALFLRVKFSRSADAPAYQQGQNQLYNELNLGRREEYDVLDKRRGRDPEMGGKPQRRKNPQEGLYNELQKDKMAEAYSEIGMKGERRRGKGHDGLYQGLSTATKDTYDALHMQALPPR

T1 sequence (Q01973 30-937): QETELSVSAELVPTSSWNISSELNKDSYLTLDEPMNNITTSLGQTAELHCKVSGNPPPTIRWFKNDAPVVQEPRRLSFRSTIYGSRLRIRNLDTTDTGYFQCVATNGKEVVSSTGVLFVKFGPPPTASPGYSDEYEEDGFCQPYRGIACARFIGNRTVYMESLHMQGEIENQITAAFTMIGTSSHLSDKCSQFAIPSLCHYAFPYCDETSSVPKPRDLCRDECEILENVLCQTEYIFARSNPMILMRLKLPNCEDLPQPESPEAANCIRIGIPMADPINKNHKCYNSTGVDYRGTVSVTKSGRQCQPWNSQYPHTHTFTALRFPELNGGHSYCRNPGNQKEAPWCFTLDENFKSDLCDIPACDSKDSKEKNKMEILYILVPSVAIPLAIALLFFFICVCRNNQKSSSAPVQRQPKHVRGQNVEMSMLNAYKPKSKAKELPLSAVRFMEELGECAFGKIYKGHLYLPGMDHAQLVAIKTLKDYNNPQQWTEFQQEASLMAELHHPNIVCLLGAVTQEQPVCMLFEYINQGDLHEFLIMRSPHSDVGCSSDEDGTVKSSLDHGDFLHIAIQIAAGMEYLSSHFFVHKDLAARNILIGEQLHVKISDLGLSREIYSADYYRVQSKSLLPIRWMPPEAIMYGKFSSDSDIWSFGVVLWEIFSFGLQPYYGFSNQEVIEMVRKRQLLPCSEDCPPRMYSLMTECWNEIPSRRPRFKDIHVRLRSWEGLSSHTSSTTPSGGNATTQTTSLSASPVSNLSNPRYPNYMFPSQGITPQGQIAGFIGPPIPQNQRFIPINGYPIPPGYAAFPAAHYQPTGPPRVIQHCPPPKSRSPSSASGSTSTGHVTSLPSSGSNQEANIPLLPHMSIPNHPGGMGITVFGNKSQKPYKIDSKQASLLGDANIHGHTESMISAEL

EC50 [1]: 71.4 nM | EC50 [3]: 252 nM
B1: 3A3 HBiTE (bispecific antibody targeting ROR1 and CD3) (bispecific antibody)
heavy: EVQLVESGGGVVQPGRSLRLSCAASGFTFSSYGMHWVRQAPGKGLEWVAVISYDGSNKYYADSVKGRFTISRDNSKNTLYLQMNSLRAEDTAVYYCAKDLDYSLWFDPWGQGTLVTVSSGGGSSGGGGSGGGGSEVQLVESGGGLVQPGGSLRLSCAASGFTFNTYAMNWVRQAPGKGLEWVARIRSKYNNYATYYADSVKGRFTISRDDSKNTLYLQMNSLRAEDTAVYYCARHGNFGSSYVSYFAYWGQGTTVTVSSASTKGPSVFPLAPSSKSTSGGTAALGCLVKDYFPEPVTVSWNSGALTSGVHTFPAVLQSSGLYSLSSVVTVPSSSLGTQTYICNVNHKPSNTKVDKKVEPKS[human IgG1 Fc with T366L Y407H (EU numbers) not spelt out]
light: DVVMTQSPLSLPVTPGEPASISCRSSQSLLQSNGYNYVEWFLQKPGQSPQLLIYLGSYRASGVPDRFSGSGSGTDFTLKISRVEAEDVGVYYCMQGTHWPLFTFGPGTKVDIKGGGGSGGGGSGGGGSEIVVTQSPATLSVSPGERATLSCRSSTGAVTTSNYANWVQQKPGQAPRGLIGGANKRAPGVPARFSGSLSGDEATLTISSLQSEDFAVYYCALWYSNLWVFGQGTKLEIKRTVAAPSVFIFPPSDEQLKSGTASVVCLLNNFYPREAKVQWKVDNALQSGNSQESVTEQDSKDSTYSLSSTLTLSKADYEKHKVYACEVTHQGLSSPVTKSFNRGE[human IgG1 Fc with T366L Y407H (EU numbers) not spelt out]
notes: HBiTE format: anti-ROR1 VL/VH - linker - anti-CD3 hSP34 VL-CL / VH-CH1 - monomeric human IgG1 Fc (mFc7.2, T366L and Y407H); About 120 kDa non-reduced, both chains about 62 kDa reduced; also called ROR1-3A3-HB; 3A3 bispecific antibody
killing of JEKO-1 cells in the presence of PBMC, EC50 [2]: 1.1 ng/mL | killing of MDA-MB-231 cells in the presence of PBMC, EC50 [2]: 14 ng/mL | killing of SK-HEP-1 cells in the presence of PBMC, EC50 [2]: 0.805 ng/mL
